Experimental data published in PMC4336329 (PLoS ONE, 2015).
The campaign covered roughly 310,000 compounds. About 2,200 (0.71%) showed an effect of 50% or more. The effect is printed as a negative number. Some of the results follow.

Each molecule was assayed against human ether-à-go-go-related gene (hERG) potassium channel (human, UniProt Q12809) (assay: primary screen, population patch clamp on CHO cells stably expressing hERG).
Chain of human ether-à-go-go-related gene (hERG) potassium channel (Q12809 whole entry, looked up): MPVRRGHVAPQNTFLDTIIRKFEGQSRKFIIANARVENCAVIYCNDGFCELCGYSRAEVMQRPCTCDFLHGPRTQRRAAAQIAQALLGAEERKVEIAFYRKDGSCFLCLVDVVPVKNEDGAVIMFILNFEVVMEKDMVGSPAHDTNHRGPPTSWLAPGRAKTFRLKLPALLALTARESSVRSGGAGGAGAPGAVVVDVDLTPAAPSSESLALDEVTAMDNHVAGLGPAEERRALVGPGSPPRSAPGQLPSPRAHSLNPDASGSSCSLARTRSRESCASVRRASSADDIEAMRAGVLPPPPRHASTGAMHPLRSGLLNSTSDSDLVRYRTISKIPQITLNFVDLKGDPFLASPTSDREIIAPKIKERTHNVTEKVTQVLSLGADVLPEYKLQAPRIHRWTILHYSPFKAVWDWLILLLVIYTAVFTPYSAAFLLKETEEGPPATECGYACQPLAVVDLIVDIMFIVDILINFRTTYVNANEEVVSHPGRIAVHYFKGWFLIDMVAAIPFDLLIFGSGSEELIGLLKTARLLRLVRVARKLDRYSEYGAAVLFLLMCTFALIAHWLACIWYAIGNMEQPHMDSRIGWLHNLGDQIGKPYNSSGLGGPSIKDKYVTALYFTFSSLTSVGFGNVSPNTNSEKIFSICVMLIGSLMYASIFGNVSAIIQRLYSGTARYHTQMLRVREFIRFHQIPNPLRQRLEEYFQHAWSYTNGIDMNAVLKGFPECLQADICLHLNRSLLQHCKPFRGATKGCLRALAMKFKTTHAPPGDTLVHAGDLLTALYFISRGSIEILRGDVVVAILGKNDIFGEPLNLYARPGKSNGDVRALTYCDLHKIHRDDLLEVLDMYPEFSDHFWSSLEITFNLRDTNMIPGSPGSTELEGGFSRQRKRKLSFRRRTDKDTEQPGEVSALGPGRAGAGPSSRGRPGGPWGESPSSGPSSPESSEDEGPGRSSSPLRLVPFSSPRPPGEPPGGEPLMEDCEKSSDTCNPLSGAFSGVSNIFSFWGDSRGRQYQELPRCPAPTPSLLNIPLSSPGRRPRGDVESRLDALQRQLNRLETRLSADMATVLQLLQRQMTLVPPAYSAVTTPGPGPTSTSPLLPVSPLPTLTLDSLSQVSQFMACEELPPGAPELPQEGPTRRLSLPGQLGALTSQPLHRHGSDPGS

Row | Structure (SMILES) | hERG current change (%, negative = inhibition) at 1uM
1 | C=C1SC(Nc2c(C)cccc2C)=NC12CCCCC2 | 11.4%
2 | CCCC(=O)NC(Nc1c(C)n(C)n(-c2ccccc2)c1=O)C(Cl)(Cl)Cl (stereo not drawn) | -4.06%
3 | Cc1cc(Oc2ccc(C#N)cc2)nc(NCc2ccccc2)n1 | 10.1%
4 | O=c1oc2ccccc2nc1/C=C(\O)c1ccccc1 | 17.7%
5 | CCOc1ccccc1NC(=O)Cn1c(=O)n(-c2ccc(OC)cc2OC)c(=O)c2c(C)c(C(=O)N(CC)CC)sc21 | 10.5%
6 | CCC1CCC2(CC1)NC(=O)N(CC(=O)Nc1cc(C)on1)C2=O (stereo not drawn) | 11%
7 | CC(C)Nc1nc(SCC(N)=O)nc(N2CCOCC2)n1 | 20.2%
8 | C[C@@H](NC(=O)/C(C#N)=C/c1ccc(O)c(O)c1)c1ccccc1 | 9.35%
9 | CCOc1ccc(N(CC(=O)NC2CCCCC2)C(=O)CNC(=O)c2cccs2)cc1 | -1.15%
10 | COc1ccc2nc(SCCC(=O)O)cc(C)c2c1 | 16.5%
11 | COc1ccccc1C(=O)NCC(=O)N/N=C/c1cc(Br)ccc1OC(=O)/C=C\c1ccco1 | 3.41%
12 | Cc1ccc(-n2c(O)c(/C=N/N3CCCCC3c3cccnc3)c(=O)[nH]c2=S)cc1 (stereo not drawn) | 6.13%
13 | O=C(O)c1cccc(-n2c(-c3cnccn3)n[nH]c2=S)c1 | 15.5%
14 | Cc1cc(F)ccc1NC(=S)NC1CCCC1 | 16%
15 | O=C(O)Cc1ccc(NC(=S)NCc2ccco2)cc1 | 9.12%
16 | Cn1nc(C(F)(F)F)c(-c2ccc(Br)cc2)c1NC(=O)C1CCC1C(=O)O (stereo not drawn) | 17.4%
17 | CC1=C(C(=O)OCc2ccccc2)C(c2ccc(Cl)cc2)NC(=O)N1C (stereo not drawn) | 20.6%
18 | Cc1ccc2oc(=O)c3cnn(CC(=O)N(CCN(C)C)Cc4ccco4)c3c2c1 | -6.08%
19 | CCN(CC#CCC1(O)c2ccccc2-c2ccccc21)C(C)C | -0.0358%
20 | CC(=O)C1=C(c2ccccc2)N(C(C)=O)n2c(C)nnc2S1 | 14.3%
21 | COCC1CCN(C(=O)c2oc3c(F)cccc3c2C)C1 (stereo not drawn) | 4.46%
22 | O=C(OCC(=O)N1CCN(S(=O)(=O)c2ccc(Cl)cc2)CC1)c1ccc([N+](=O)[O-])o1 | 9.34%

Row | Structure (SMILES) | hERG current change (%, negative = inhibition) at 1uM
23 | O=C(O)c1ccc(N/N=C/c2ccc(OC(=O)c3ccccc3Cl)cc2)cc1 | -0.568%
24 | O=C(NCC1CC1)c1onc(CSc2nc3ccccc3[nH]2)c1C(=O)NCC1CC1 | -28.3%
25 | CC(=O)Nc1ccc(Oc2ccc(S(=O)(=O)N3CCCC3)cn2)cc1 | 1.99%
26 | CCN(C(=O)COc1ccc(C)nc1[N+](=O)[O-])C1CCS(=O)(=O)C1 (stereo not drawn) | 9.42%
27 | NC(=O)C1=C[C@H](c2csc3ccccc23)C[C@H](OCCCCO)O1 | 7.73%
28 | CCc1noc(C)c1C(=O)NCCN1C(=O)S/C(=C\c2ccc(OC)cc2)C1=O | 7.03%
29 | O=C(COC(=O)/C=C/c1cccc(C(F)(F)F)c1)NCc1ccccc1 | 4.72%
30 | COc1ccc(S(=O)(=O)Nc2cccc(N(C)S(C)(=O)=O)c2)cc1Br | 8.18%
31 | COC(=O)CN(CCc1ccccc1)S(=O)(=O)c1ccc(OC)c(OC)c1 | -8.57%
32 | CC(=O)N1c2ccccc2S(=O)(=O)c2ccccc21 | 4.37%
33 | COc1ccccc1CNC(=O)C1CCN(c2nc3ccccc3o2)CC1 | -4.77%
34 | CCOC(=O)c1c(Nc2nc(C)c(C(=O)NC)s2)sc(C)c1C | -17.2%
35 | Clc1ccc2[nH]c(-c3ccccc3)cc2c1 | 8.04%
36 | CCOC(=O)C1=C(C)NC(=O)NC1c1ccc(OC(C)C(=O)O)c(OC)c1 (stereo not drawn) | 6.22%
37 | O=C(Cn1c(=O)sc2ccccc21)Nc1ccccc1C(=O)O | 8.3%
38 | C=CCn1c(N)c(C(=O)Nc2ccc(C)cc2)sc1=S | 13.4%
39 | CC(C)[C@H](NC(=O)OC(C)(C)C)c1nnc(S(=O)(=O)Cc2c(F)cccc2Cl)o1 | -1.55%
40 | Cc1cc(=O)n2c3ccccc3n(CC(O)CN3CCN(Cc4ccccc4)CC3)c2c1C#N (stereo not drawn) | -31%
41 | O=C1C=C(c2ccc3c(c2)oc2ccccc23)C[C@@H](c2ccc(Cl)cc2)C1 | 16%
42 | CCOC(=O)N1CCN(CC(=O)Nc2ccc(F)c(F)c2)CC1 | 8.59%
43 | CCn1nc(NC(=O)c2ccncc2)c2cc3ccccc3nc21 | 8.34%
44 | CN1CCN(c2ccccc2NC(=O)c2ccc(-c3ccc(Cl)c(Cl)c3)o2)CC1 | 7.83%

Row | Structure (SMILES) | hERG current change (%, negative = inhibition) at 1uM
45 | COc1ccccc1CNCc1cc(OC)c(OC)c(OC)c1.O=C(O)C(=O)O | 16.5%
46 | O=C(O)Cn1c(O)c(C=Nc2ccccc2)sc1=S [14736554] | 11.2%
47 | O=C(COC(=O)Cc1cccc(C(F)(F)F)c1)NCc1ccco1 | 5.82%
48 | Cc1ccc(/C=N/NC(=O)c2ccc(N(C)S(=O)(=O)c3ccccc3)cc2)cc1 | -4.69%
49 | COc1ccc(C(=O)Nc2cc(OC)c(Cl)cc2OC)cc1 | -8.27%
50 | CCCSc1nnc2c(n1)OC(c1cccn1C)N(C(C)=O)c1ccccc1-2 (stereo not drawn) | 0.795%
51 | CONC(=O)C1CCN(C(=O)OCc2ccccc2)CC1 | 15.8%
52 | CCn1c(O)c(/C=C2\C=NN=C2c2ccccc2)sc1=S | 13.8%
53 | Cc1csc(N2CCN(c3cc4c(cc3Cl)nc(-c3ccncc3)n4CCCN3CCCC3)CC2)n1 | -16.8%
54 | COc1cccc(CN2CCC(n3nccc3NC(=O)CCCc3ccccc3)CC2)c1O | -55.4%
55 | Cc1csc(N2CCCC2c2nc3cc(Cl)c(N4CCCCC4)cc3n2CCOCCO)n1 (stereo not drawn) | -2.57%
56 | O=c1c2oc3ccccc3c2ncn1Cc1ccccc1Cl | 13.1%
57 | CN(C)S(=O)(=O)N1CCN(c2cc(Cl)ccc2Cl)CC1 | 16.5%
58 | O=C(Nc1ccccc1C(=O)N1CCOCC1)C1CCCO1 (stereo not drawn) | 8.21%
59 | CC(=O)c1c(C)[nH]c(C(=O)NCc2ccco2)c1C | -0.592%
60 | Cc1ccc(CNC(=O)CCN2C(=O)[C@@H]3Cc4ccccc4CN3C2=O)cc1 | 2.53%
61 | CCSc1nnc(-c2ccc(OC)cc2)o1 | 3.96%
62 | COc1ccc(C2C(C(=O)N3CC(C)CC(C)C3)c3ccccc3C(=O)N2C)cc1 (stereo not drawn) | 10.8%
63 | CCOC(=O)C1CCN(C(=O)CCNC(=O)Cn2cnc3ccccc3c2=O)CC1 | 3.22%
64 | CC(C)C[C@H](NC(=O)N1CC(=O)Nc2ccccc21)C(=O)N[C@@H](Cc1c[nH]c2ccccc12)C(=O)O | 10.6%
65 | Cc1csc2ncc(C(=O)N(Cc3ccccc3)c3ccccn3)c(=O)n12 | 14.1%
66 | O=C1CSC(c2cccc(F)c2)N1c1ccc(O)cc1 (stereo not drawn) | 14.6%

Row | Structure (SMILES) | hERG current change (%, negative = inhibition) at 1uM
67 | CN(C(=O)c1ccc2c(c1)CCO2)C(C)(C)C | 12.9%
68 | CCOP(=O)(OCC)Oc1cc(C)c(N(C)C)c(C)c1 | 5.68%
69 | Cc1ccc(S(=O)(=O)N2CCC(C(=O)Nc3ccccc3N3CCCC3)CC2)cc1 | 12.9%
70 | CCc1cccc(NC(=O)c2sc3nc4n(c(=O)c3c2C)CCC4)c1 | 1.39%
71 | Cc1cc2c(c(=O)n1C1CC1)C(c1cccc(Cl)c1)C(C#N)=C(N)O2 (stereo not drawn) | -9.66%
72 | COc1ccc(NC(=O)C2CCCN(c3nccc(C)n3)C2)cc1 (stereo not drawn) | -0.18%
73 | Cc1ccc(-c2nn(C)c(=O)c3ccccc23)cc1CN1CCOCC1 | 11.3%
74 | CC1CCCC(NC(=O)NC(=O)COC(=O)c2ccc(O)cc2O)C1C (stereo not drawn) | 10.9%
75 | O=C(O)C1CCN(C(=O)COc2ccc3c4c(c(=O)oc3c2)CCCC4)CC1 | -5.91%
76 | O=Cc1ccc(OC(=O)CCCCC(=O)Oc2ccc(C=O)cc2)cc1 | 19%
77 | COc1ccc2c(CCNC(=O)/C=C/c3ccc(OC)c(OC)c3)c[nH]c2c1 | 16.7%
78 | CC1(C)Cc2cccc(C(=O)Nc3ccc(Cl)cc3)c2O1 | 14.5%
79 | COc1ccc(-c2noc(CN(C)C(=O)Nc3ccccc3)n2)cc1 | 10.5%
80 | COC(=O)c1ccccc1NC(=O)CSc1n[nH]c(-c2ccco2)n1 | 15.9%
81 | CCOc1cc(CNCCc2cccc(F)c2)ccc1OC.O=C(O)C(=O)O | -12.7%
82 | COc1ccccc1C(=O)NCCc1nc2ccccc2[nH]1 | 13.9%
83 | Cc1ccnc2c(N3C(=O)C4C5C=CC(C5)C4(C)C3=O)cccc12 (stereo not drawn) | 4.95%
84 | COc1cccc(N2CCN(C(=O)c3ccc(CS(=O)Cc4ccc(C)cc4)o3)CC2)c1 (stereo not drawn) | 4.41%
85 | CC(NC(=O)[C@H](NC(=O)[C@@H]1Cc2ccccc2CN1)c1ccccc1)c1ccccc1 (stereo partly drawn) | 2.59%
86 | CCOCCCNC(=O)c1cc(Nc2ccc(OC)cc2OC)nc2ccccc12 | -1.43%
87 | CC(=O)c1cccc(NC(=O)NC(C)c2ccncc2)c1 (stereo not drawn) | 0.278%
